{"source": "paper PMC8249470", "about": "“Binding of guide piRNA triggers methylation of the unstructured N-terminal region of Aub leading to assembly of the piRNA amplification complex” (Nature Communications, 2021)", "binders": {"B1": {"name": "Valois (Vls) (protein, UniProt Q9VIP8 1-367)", "chain": "MFPQRSSELYRTPVTHQPPPALELAGNLEYPNLNIADLNARLENLSPRLHDCWDSIAINDHNHLALATNRREGRQWWGMLFGYGRDQMHHMSVDSANFKLQAEHTVNIVRYAEDDFLLVALGDTRLQAWSTYSKVRDSQSPYCLFLVGESSAHPTPISQLSVFKADPRTAVSGSADSTLNVWDLSGADMVSTYRSRSSHTDKLTGLATPAASVDKFVTCDRGGCARLWDVRAAAPSSTCLYADASHVLSFTSAAWAAASELQGDNHIYLGDYDGKVHTLDIRVPRKLAETREYFDKGHVAQLLINGPHLAAMSNLPASVKVANVQAGHEFIYTHQDTHSRLTDAVWTDDSTLITIGHGRKMVTHAIK"}, "B2": {"name": "FLAG-Csul (enzyme, UniProt Q9U6Y9 1-610)", "chain": "MNYYVCLHQEGVNSIPKLIEKAFANNYNVVSTSINANMLPFEPHESDPTYPATILSGSDWNSKVIFTMSDVNVDSPNDKLREHAKEVFMRDVAWAEHLQNVGNLMVRLRGPENENLASIVLAKTKDDFPSGNWFIQVPITNPELATFEHRKDATAEEVAEAESNDPWNWWNNLRMVTKHSTKVKVVIELNDADRPSKETVRRWLGEPIEAIIIPSSLFVRNRSNYCVLKKEWQLIVGHFISVRANIIISTNPNDKALCQYADYVNKLINDNCDKHMLNSYENMLEIPLQPLCDNLDTYTYEVFETDPVKYKLYQDAVQAALLDRVSAAEAKTKLTVVMLLGGGRGPLARAVFNAAELTKRKVRLYIIEKNPNAIRTLSNMVKTLWADKDVHIFSKDMRDFSPPELADIMVSELLGSFGDNELSPECLDGALKLLKPDGISIPYKSTSYINPLMSAVLHQNVCQLLPTYPAFDYGYVSLLKNIYHIDEPQALFEFVHPNRAENIDNTRCKTVSFKVNKDCVLHGIGGYFDTHLYKDICLSINPLTHTPGMFSWFPMFFATRPRTLREGQTISIQFWRCVDATKVWYEWQVVNSPDDWEHHNTRGTGYNMRL"}, "B3": {"name": "HA-tagged Ago3 (protein, UniProt Q7PLK0 1-867)", "chain": "MSGRGNLLSLFNKNAGNMGKSISSKDHEIDSGLDFNNSESSGERLLSSHNIETDLITTLQHVNISVGRGRARLIDTLKTDDHTSNQFITSESKENITKKTKGPESEAIASENGLFFPDLIYGSKGSSVNIYCNYLKLTTDESKGVFNYEVRFFPPIDSVHLRIKYLNDHKDKLGGTKTFDGNTLYLPILLPNKMTVFISKAEDVELQIRILYKKKEEMRNCTQLYNILFDRVMKVLNYVKFDRKQFDPSRPKIIPLAKLEVWPGYVTAVDEYKGGLMLCCDVSHRILCQKTVLEMLVDLYQQNVEHYQESARKMLVGNIVLTRYNNRTYKINDICFDQNPTCQFEIKTGCTSYVEYYKQYHNINIKDVNQPLIYSIKKSRGIPAERENLQFCLIPELCYLTGLRDEVRSDNKLMREIATFTRVSPNQRQMALNKFYENVSNTPAAQEILNSWGLSLTNNSNKISGRQMDIEQIYFSKISVSAGRSAEFSKHAVTNEMLKVVHLSKWIIIHLRNYRQAATSLLDNMKQACESLGMNISNPTMISLDHDRIDAYIQALRRNITMNTQMVVCICHNRRDDRYAAIKKICCSEIPIPSQVINAKTLQNDLKIRSVVQKIVLQMNCKLGGSLWTVKIPFKNVMICGIDSYHDPSNRGNSVAAFVASINSSYSQWYSKAVVQTKREEIVNGLSASFEIALKMYRKRNGKLPTNIIIYRDGIGDGQLYTCLNYEIPQFEMVCGNRIKISYIVVQKRINTRIFSGSGIHLENPLPGTVVDQHITKSNMYDFFLVSQLVRQGTVTPTHYVVLRDDCNYGPDIIQKLSYKLCFLYYNWAGTVRIPACCMYAHKLAYLIGQSIQRDVAEALSEKLFYL"}, "B4": {"name": "HA-tagged Ago3, Q7PLK0 1-867 (protein)", "chain": "MSGRGNLLSLFNKNAGNMGKSISSKDHEIDSGLDFNNSESSGERLLSSHNIETDLITTLQHVNISVGRGRARLIDTLKTDDHTSNQFITSESKENITKKTKGPESEAIASENGLFFPDLIYGSKGSSVNIYCNYLKLTTDESKGVFNYEVRFFPPIDSVHLRIKYLNDHKDKLGGTKTFDGNTLYLPILLPNKMTVFISKAEDVELQIRILYKKKEEMRNCTQLYNILFDRVMKVLNYVKFDRKQFDPSRPKIIPLAKLEVWPGYVTAVDEYKGGLMLCCDVSHRILCQKTVLEMLVDLYQQNVEHYQESARKMLVGNIVLTRYNNRTYKINDICFDQNPTCQFEIKTGCTSYVEYYKQYHNINIKDVNQPLIYSIKKSRGIPAERENLQFCLIPELCYLTGLRDEVRSDNKLMREIATFTRVSPNQRQMALNKFYENVSNTPAAQEILNSWGLSLTNNSNKISGRQMDIEQIYFSKISVSAGRSAEFSKHAVTNEMLKVVHLSKWIIIHLRNYRQAATSLLDNMKQACESLGMNISNPTMISLDHDRIDAYIQALRRNITMNTQMVVCICHNRRDDRYAAIKKICCSEIPIPSQVINAKTLQNDLKIRSVVQKIVLQMNCKLGGSLWTVKIPFKNVMICGIDSYHDPSNRGNSVAAFVASINSSYSQWYSKAVVQTKREEIVNGLSASFEIALKMYRKRNGKLPTNIIIYRDGIGDGQLYTCLNYEIPQFEMVCGNRIKISYIVVQKRINTRIFSGSGIHLENPLPGTVVDQHITKSNMYDFFLVSQLVRQGTVTPTHYVVLRDDCNYGPDIIQKLSYKLCFLYYNWAGTVRIPACCMYAHKLAYLIGQSIQRDVAEALSEKLFYL"}}, "key": {"[1]": {"target": "T1, Aub expressed in S2 cells (tag not named) (Drosophila melanogaster) (UniProt O76922)", "T1 sequence": "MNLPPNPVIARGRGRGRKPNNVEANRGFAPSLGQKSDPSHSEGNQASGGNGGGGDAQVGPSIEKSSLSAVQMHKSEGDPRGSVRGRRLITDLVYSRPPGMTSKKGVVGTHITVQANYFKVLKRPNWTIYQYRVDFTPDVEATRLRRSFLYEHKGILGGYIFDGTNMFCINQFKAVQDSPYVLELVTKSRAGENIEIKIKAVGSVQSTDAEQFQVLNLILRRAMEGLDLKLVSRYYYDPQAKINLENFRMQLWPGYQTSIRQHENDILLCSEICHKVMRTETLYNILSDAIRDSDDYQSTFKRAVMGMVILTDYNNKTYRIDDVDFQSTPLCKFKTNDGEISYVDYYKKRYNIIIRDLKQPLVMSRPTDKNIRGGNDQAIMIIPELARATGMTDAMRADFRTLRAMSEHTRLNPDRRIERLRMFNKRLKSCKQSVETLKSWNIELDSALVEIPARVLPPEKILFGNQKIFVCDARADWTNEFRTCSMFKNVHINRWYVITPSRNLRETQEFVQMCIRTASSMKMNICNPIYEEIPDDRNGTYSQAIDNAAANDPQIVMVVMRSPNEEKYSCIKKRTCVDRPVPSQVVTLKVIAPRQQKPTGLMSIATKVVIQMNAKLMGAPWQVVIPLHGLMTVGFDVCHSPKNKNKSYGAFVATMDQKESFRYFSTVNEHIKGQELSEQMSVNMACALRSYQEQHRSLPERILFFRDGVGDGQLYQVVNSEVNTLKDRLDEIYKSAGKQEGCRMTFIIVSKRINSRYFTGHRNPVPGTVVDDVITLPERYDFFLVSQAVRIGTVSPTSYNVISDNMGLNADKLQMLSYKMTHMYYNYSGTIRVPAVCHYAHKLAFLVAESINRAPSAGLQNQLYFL", "experiment": "co-IP; tagged proteins co-expressed in S2 cells; lysis buffer 20 mM Tris pH 7.4, 200 mM KCl, 0.1% Tween-20, 0.1% Igepal, 100 μg/mL RNase A; anti-FLAG, anti-HA or anti-GFP beads, 4 °C, 4 h; Western blot; in Fig. 6e lysates were incubated with or without ssRNA oligo before the co-IP"}, "[2]": {"target": "T2, HA-Aub (wild type) (Drosophila melanogaster) (UniProt O76922)", "T2 sequence": "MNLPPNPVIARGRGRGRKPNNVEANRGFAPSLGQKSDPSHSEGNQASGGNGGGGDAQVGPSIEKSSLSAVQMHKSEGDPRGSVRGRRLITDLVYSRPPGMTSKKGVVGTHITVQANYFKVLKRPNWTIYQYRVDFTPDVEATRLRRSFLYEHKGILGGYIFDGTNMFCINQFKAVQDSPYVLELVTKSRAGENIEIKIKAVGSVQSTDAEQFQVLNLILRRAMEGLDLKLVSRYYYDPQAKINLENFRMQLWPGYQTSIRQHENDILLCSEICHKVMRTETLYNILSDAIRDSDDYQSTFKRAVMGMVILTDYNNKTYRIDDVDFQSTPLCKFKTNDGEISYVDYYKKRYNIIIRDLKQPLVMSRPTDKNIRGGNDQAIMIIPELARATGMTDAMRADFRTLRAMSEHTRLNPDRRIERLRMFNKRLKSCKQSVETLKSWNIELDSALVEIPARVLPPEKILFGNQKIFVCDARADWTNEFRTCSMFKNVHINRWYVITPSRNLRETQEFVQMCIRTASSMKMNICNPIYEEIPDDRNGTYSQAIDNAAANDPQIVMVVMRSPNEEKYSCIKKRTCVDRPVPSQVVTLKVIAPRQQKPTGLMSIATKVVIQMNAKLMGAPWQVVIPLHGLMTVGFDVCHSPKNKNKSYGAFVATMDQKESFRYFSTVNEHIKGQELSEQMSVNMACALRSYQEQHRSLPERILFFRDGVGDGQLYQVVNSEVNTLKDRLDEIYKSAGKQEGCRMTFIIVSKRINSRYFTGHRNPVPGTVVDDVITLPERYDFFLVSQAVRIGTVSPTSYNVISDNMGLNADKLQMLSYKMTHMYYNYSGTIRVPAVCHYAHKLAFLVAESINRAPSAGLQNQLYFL", "experiment": "co-IP; tagged proteins co-expressed in S2 cells; lysis buffer 20 mM Tris pH 7.4, 200 mM KCl, 0.1% Tween-20, 0.1% Igepal, 100 μg/mL RNase A; anti-FLAG, anti-HA or anti-GFP beads, 4 °C, 4 h; Western blot; in Fig. 6e lysates were incubated with or without ssRNA oligo before the co-IP"}, "[3]": {"target": "T3, GFP-tagged truncated Krimper lacking its N terminal dimerization domain (Drosophila melanogaster) (UniProt A1ZAC4)", "T3 sequence": "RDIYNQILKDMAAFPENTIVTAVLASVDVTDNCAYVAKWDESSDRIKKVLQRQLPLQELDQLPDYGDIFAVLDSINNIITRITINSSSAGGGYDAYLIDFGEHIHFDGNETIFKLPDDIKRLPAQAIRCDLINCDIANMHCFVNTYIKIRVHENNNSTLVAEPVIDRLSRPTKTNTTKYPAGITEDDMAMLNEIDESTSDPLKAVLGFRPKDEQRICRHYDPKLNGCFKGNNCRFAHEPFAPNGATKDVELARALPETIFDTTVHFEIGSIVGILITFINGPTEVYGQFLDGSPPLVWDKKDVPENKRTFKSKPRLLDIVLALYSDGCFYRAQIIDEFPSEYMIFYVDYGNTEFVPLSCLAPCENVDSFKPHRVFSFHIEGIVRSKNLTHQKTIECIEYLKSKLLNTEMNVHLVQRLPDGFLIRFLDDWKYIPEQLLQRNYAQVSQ", "experiment": "co-IP; two-step sequential immunoprecipitation from S2 cells co-expressing FLAG-Aub, HA-Ago3 and GFP-deltaN-Krimper: FLAG IP, elution with 3X FLAG peptide, then GFP IP; Western blot; lysis buffer 20 mM Tris pH 7.4, 200 mM KCl, 0.1% Tween-20, 0.1% Igepal, 100 μg/mL RNase A"}, "[4]": {"target": "T4, FLAG-tagged Aub (Drosophila melanogaster), O76922", "T4 chain": "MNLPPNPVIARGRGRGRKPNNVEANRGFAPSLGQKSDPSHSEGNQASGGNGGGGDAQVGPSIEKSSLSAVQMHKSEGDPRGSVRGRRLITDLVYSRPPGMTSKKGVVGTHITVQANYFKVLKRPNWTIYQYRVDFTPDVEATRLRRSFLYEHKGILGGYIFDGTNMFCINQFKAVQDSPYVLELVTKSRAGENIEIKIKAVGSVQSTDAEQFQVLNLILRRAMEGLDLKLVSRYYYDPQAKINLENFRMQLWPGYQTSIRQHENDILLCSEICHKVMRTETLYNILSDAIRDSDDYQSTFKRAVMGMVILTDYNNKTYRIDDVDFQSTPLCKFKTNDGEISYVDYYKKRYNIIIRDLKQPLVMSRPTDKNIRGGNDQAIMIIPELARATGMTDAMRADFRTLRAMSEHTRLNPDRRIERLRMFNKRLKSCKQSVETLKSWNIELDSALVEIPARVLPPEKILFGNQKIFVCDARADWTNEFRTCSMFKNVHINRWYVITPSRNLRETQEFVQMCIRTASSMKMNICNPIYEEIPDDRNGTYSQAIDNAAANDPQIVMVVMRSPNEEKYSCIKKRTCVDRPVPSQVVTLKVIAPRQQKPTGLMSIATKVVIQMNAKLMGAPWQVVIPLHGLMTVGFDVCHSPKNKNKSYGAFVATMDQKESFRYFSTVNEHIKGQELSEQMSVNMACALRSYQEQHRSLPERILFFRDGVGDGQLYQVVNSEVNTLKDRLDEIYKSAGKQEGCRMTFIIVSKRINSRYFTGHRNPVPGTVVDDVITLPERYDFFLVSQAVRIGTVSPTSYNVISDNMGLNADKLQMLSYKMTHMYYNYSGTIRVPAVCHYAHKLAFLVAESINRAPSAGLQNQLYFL", "experiment": "co-IP; two-step sequential immunoprecipitation from S2 cells co-expressing FLAG-Aub, HA-Ago3 and GFP-deltaN-Krimper: FLAG IP, elution with 3X FLAG peptide, then GFP IP; Western blot; lysis buffer 20 mM Tris pH 7.4, 200 mM KCl, 0.1% Tween-20, 0.1% Igepal, 100 μg/mL RNase A", "settings": "remark: other sources report otherwise"}}, "note": "No constants are given. Whether binding was seen depends on the method and setting. In cells and extracts the contact can be indirect. Some binding calls cover weakened binding; strength is not graded here. Where a sequence is shown, tags or fusion partners need not be part of it."}
{"binder": "B1", "values": [{"measurement": "binding", "setting": "[1]", "value": "binds"}]}
{"binder": "B2", "values": [{"measurement": "binding", "setting": "[2]", "value": "binds"}]}
{"binder": "B3", "values": [{"measurement": "binding", "setting": "[3]", "value": "binds"}]}
{"binder": "B4", "values": [{"measurement": "binding", "setting": "[4]", "value": "binds"}]}
